The numbers were not newly measured in patent publication US20050026866A1 (priority 2002, published 2005), which cites them from elsewhere.

For one data set, the system named is Ehrlich ascites tumors. Particulars: daily intraperitoneal injection of lactulose; cited from earlier work.
The subject of data set [1] is tetracycline-sensitive promoter. Particulars: mouse, in vivo, iv; cited from earlier work.

In the case of `OC[C@H]1O[C@@H](O[C@@H]2[C@@H](CO)OC(O)(CO)[C@H]2O)[C@H](O)[C@@H](O)[C@H]1O` (mixture of isomers) [lactulose], the “increase in growth and survival of the bacteria within the tumor compared to a saline control” value in the data set with Ehrlich ascites tumors is recorded as 1000 fold.

With `Cc1c2c(c(O)c3c(O)cccc13)C(=O)[C@]1(O)C(=O)C(C(N)=O)=C(O)[C@@H](N(C)C)[C@@H]1C2` [anhydrotetracycline], in data set [1], the intratumoral luciferase activity entry was “induced”.
